According to the supplement of paper PMC4166925:
± gives the standard deviation of the averaged measurements. Over roughly 33,000 sequences, “E-score (dimensionless, -0.5 to 0.5)” has its median near -0.049; the highest 2% begin near 0.37. The list shows a part of the results.

tested on: T1, PmTbr T-box DNA-binding domain (GST fusion); experiment: PBM E-score of 8-mer (E-score (dimensionless, -0.5 to 0.5)); Tbr is Tbrain of the sea star Patiria miniata (Pm) or the sea urchin Strongylocentrotus purpuratus (Sp); higher = stronger binding preference; most listed sequences are background and not binding sites; settings: the construct has about 5 more residues each side
T1 sequence: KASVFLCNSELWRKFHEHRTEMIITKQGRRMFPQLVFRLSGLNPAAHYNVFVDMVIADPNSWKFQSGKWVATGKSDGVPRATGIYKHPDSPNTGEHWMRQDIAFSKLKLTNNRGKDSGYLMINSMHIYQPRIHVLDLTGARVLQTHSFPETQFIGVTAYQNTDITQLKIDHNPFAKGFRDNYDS
How it was run: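 Universal Agilent oligonucleotide arrays, made double-stranded by primer extension, were incubated with 200 nM GST-fused Tbr T-box DNA-binding domain in PBS (pH 7.5). The protein was expressed in BL21 E. coli at 20 °C and purified by glutathione affinity chromatography. After scanning and quantification, the Universal PBM Analysis Suite assigned an enrichment E-score to each ungapped 8-mer, averaged over duplicate arrays.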

Row | Sequence | PBM E-score of 8-mer
1 | CTCTACAG | -0.113 ± 0.0066
2 | CATCCTCA | -0.0261 ± 0.11
3 | AATTTAAG | -0.158 ± 0.055
4 | AATTCCAG | -0.107 ± 0.0077
5 | CAGTGATA | 0.0686 ± 0.025
6 | ACATGTCC | -0.137 ± 0.069
7 | AAAAGCTT | -0.0359 ± 0.065
8 | CAGTACAA | -0.0958 ± 0.11
9 | GTACGGGA | -0.122 ± 0.14
10 | AATCTCAC | 0.382 ± 0.0088
11 | ATTTCAAG | -0.237 ± 0.005
12 | CCATTGGG | -0.0455 ± 0.018
13 | GGCAGTAC | -0.0369 ± 0.011
14 | GTATACAA | -0.188 ± 0.028
15 | GCGCATCC | -0.146 ± 0.024
16 | AAGAGAGA | -0.148 ± 0.021
17 | GCCGGTAC | -0.0742 ± 0.039
18 | AATGGGTG | 0.152 ± 0.01
19 | ATCTATGG | -0.0973 ± 0.0057
20 | ATACTTGG | -0.174 ± 0.046
21 | GGGGAGTA | -0.302 ± 0.006
22 | GTGTCAAA | 0.448 ± 0.0094
23 | AAAGGCCG | -0.109 ± 0.03
24 | ACGAGACA | -0.0382 ± 0.093
25 | AAAACCAA | -0.179 ± 0.096

Row | Sequence | PBM E-score of 8-mer
26 | ATTCACTC | 0.0712 ± 0.054
27 | ACTGTTCT | -0.0189 ± 0.038
28 | CATTAACC | -0.234 ± 0.022
29 | ATCAGTCG | -0.135 ± 0.035
30 | ATGAATTA | 0.0608 ± 0.11
31 | CCTACGTC | -0.0133 ± 0.061
32 | CATTCCCG | -0.0279 ± 0.086
33 | GAATACAA | -0.083 ± 0.062
34 | AGCGAAAT | 0.134 ± 0.06
35 | GCGAAAGA | 0.248 ± 0.0091
36 | CGTTGCGC | 0.102 ± 0.037
37 | GACAAAAA | 0.158 ± 0.09
38 | CGAAGGTC | 0.08 ± 0.055
39 | ATCGGGGG | -0.128 ± 0.09
40 | ATTGGCTC | -0.136 ± 0.053
41 | ACGCCCTC | 0.2012 ± 0.00017
42 | GACGACCA | -0.135 ± 0.022
43 | AATCAGCA | 0.0635 ± 0.0042
44 | ACAACATA | -0.0529 ± 0.047
45 | AGGAAACA | -0.161 ± 0.027
46 | AATTCGCG | 0.303 ± 0.035
47 | AGGATAAA | -0.154 ± 0.082
48 | ACCAACGC | 0.175 ± 0.013
49 | CTGATGGC | -0.205 ± 0.011
50 | ATTGTTAG | 0.0514 ± 0.074

Row | Sequence | PBM E-score of 8-mer
51 | GTATTCTA | -0.236 ± 0.044
52 | TAGCTCGA | 0.0596 ± 0.047
53 | AATTTGTA | -0.0152 ± 0.047
54 | CCTTCTGC | 0.187 ± 0.032
55 | ACCTGCGA | 0.344 ± 0.035
56 | ATAGTTCC | -0.201 ± 0.075
57 | AACTAACT | 0.0164 ± 0.028
58 | GCCGGTAA | -0.0951 ± 0.077
59 | CCGGCCTC | -0.272 ± 0.022
60 | CATCTCGA | -0.12 ± 0.017
61 | TCAAAAGA | -0.163 ± 0.04
62 | GCAGAACC | -0.0717 ± 0.0065
63 | CAAATTCG | 0.0471 ± 0.029
64 | CCATCACG | 0.033 ± 0.018
65 | AGACTTGG | -0.0921 ± 0.053
66 | ACACGACC | 0.0984 ± 0.062
67 | GTAGTGCA | -0.21 ± 0.062
68 | GAACTGTA | -0.0173 ± 0.082
69 | CTGTCAAC | 0.338 ± 0.011
70 | CTGCTCAC | 0.0418 ± 0.0086
71 | CAAATAGG | -0.0632 ± 0.017
72 | GGCATCAA | -0.195 ± 0.1
73 | CAGTTTAG | 0.0181 ± 0.017
74 | CGGGATGA | -0.139 ± 0.059
75 | CAAACCTC | -0.2857 ± 0.00071

Row | Sequence | PBM E-score of 8-mer
76 | CGTCCTGA | -0.154 ± 0.015
77 | CCCTCGTC | -0.00802 ± 0.031
78 | CTCAAAAC | -0.0754 ± 0.0071
79 | GAATCTTA | -0.189 ± 0.022
80 | ATAAGTGC | 0.251 ± 0.0033
81 | CAAAACCA | -0.0609 ± 0.091
82 | GTCTCAAA | -0.197 ± 0.014
83 | GATTCACA | 0.38 ± 0.041
84 | AAAACCTG | 0.191 ± 0.063
85 | GTAGGGAA | -0.149 ± 0.0074
86 | GTGGCTGA | 0.113 ± 0.04
87 | ACAGCTTC | 0.19 ± 0.02
88 | GTCTTACA | -0.135 ± 0.0075
89 | CAAACACC | 0.35 ± 0.015
90 | ATTCCGGC | 0.106 ± 0.026
91 | CAATCTGC | 0.00739 ± 0.0085
92 | GATGAGTA | -0.079 ± 0.028
93 | CAGCGTCC | -0.214 ± 0.0055
94 | CTCTAAGA | -0.271 ± 0.053
95 | GACTCAAA | -0.277 ± 0.029
96 | CCACTTAG | -0.0105 ± 0.01
97 | CCTGCCCC | -0.0529 ± 0.052
98 | AACGCTCA | 0.0651 ± 0.03
99 | CTATTATC | -0.101 ± 0.018
100 | CCGATGGA | -0.21 ± 0.0023

Row | Sequence | PBM E-score of 8-mer
101 | GAAGACAC | 0.314 ± 0.012
102 | CGTTTAAA | -0.375 ± 0.013
103 | AATGCACG | -0.0698 ± 0.084
104 | CAGTTTAC | 0.0267 ± 0.0082
105 | AGTTTAGC | -0.0656 ± 0.044
106 | GACCTCGC | 0.0974 ± 0.064
107 | CAAAATCC | -0.0365 ± 0.016
108 | ATAACCAA | -0.112 ± 0.038
109 | AAGTCACG | 0.209 ± 0.01
110 | ATAATCCC | -0.17 ± 0.031
111 | AGCCACAA | 0.0383 ± 0.00057
112 | GCAACCGA | 0.0552 ± 0.038
113 | GGATGTGA | 0.267 ± 0.021
114 | TCTAAGCA | -0.0206 ± 0.015
115 | AATAGTGG | 0.103 ± 0.038
116 | AAAAATCT | 0.0192 ± 0.13
117 | GGAATTCC | -0.174 ± 0.038
118 | CGGTCGGC | -0.0774 ± 0.016
119 | AGAGTTAA | 0.0267 ± 0.1
120 | AACGAGGA | -0.1794 ± 0.00061
121 | GAACCCGC | -0.0487 ± 0.038
122 | CGAAGTTC | -0.0527 ± 0.02
123 | AACTTGCC | 0.151 ± 0.0032
124 | AACCCGTG | 0.158 ± 0.045
125 | GAACTCGA | 0.127 ± 0.09

Row | Sequence | PBM E-score of 8-mer
126 | CACCAATG | 0.154 ± 0.009
127 | AGAAAAGA | 0.118 ± 0.13
128 | AGAGTCGG | -0.0477 ± 0.017
129 | TCTACGCA | -0.0731 ± 0.034
130 | GGTCTTTA | -0.29 ± 0.029
131 | ATGCGAAC | 0.13 ± 0.018
132 | ATCGTTAG | -0.0601 ± 0.038
133 | AATCGAGA | -0.044 ± 0.02
134 | CATTTACG | -0.115 ± 0.15
135 | AACCTGCT | -0.0229 ± 0.061
136 | CCGCGCTC | 0.0344 ± 0.078
137 | AGAATTAG | 0.0754 ± 0.062
138 | ATGCCTAC | -0.246 ± 0.011
139 | GTTTGTCA | 0.228 ± 0.043
140 | TGAAGCAA | -0.229 ± 0.055
141 | CCTGACTA | 0.00126 ± 0.025
142 | ATAATCTC | -0.114 ± 0.039
143 | ATCCCGAC | 0.0102 ± 0.0067
144 | ATTGGTAG | -0.00375 ± 0.026
145 | AAAAGCAA | -0.00863 ± 0.0022
146 | GCCGTAGA | -0.259 ± 0.051
147 | GGTAAGTA | -0.0321 ± 0.051
148 | ACAAGACA | 0.0595 ± 0.094
149 | ACCGATAC | -0.0871 ± 0.047
150 | AGGGGCAG | -0.185 ± 0.048

Row | Sequence | PBM E-score of 8-mer
151 | AATAGCAA | 0.0972 ± 0.078
152 | CGTAGTAG | -0.133 ± 0.047
153 | ATACGGAG | 0.138 ± 0.0076
154 | ATTTCGAG | 0.09258 ± 0.00026
155 | GCTTCTTA | -0.0234 ± 0.0084
156 | GAATCGCA | 0.236 ± 0.012
157 | CGTAGCGC | 0.0552 ± 0.042
158 | ATGCGTTA | 0.269 ± 0.051
159 | CTAGTTCC | -0.0443 ± 0.018
160 | CTCCAAAC | -0.108 ± 0.11
161 | CACGTTTA | 0.206 ± 0.09
162 | CTCACCTA | 0.4081 ± 0.0035
163 | TACTCCTA | -0.0936 ± 0.005
164 | GTGAACCA | 0.1565 ± 0.00064
165 | GGTGTGCA | 0.365 ± 0.017
166 | AGGTCCCA | -0.0519 ± 0.039
167 | CCAGGTGC | 0.379 ± 0.014
168 | AGTAGGTC | -0.148 ± 0.05
169 | CGGGGGAA | -0.185 ± 0.079
170 | AGTAGGAA | -0.13 ± 0.062
171 | ACCTAGAC | 0.098 ± 0.072
172 | CAGGTCCG | -0.106 ± 0.012
